The other results are listed elsewhere or left out.
B1: chr14:54897011:54897012:-_ENSG00000100528_ENST00000216416|hu_hu|motif|central (ssRNA)
RNA: GGGAGUUCUACAGUCCGACGAUCCACCAAAACAUAGAUCAUGCCAUAUAGGUAGUAAAAAAAUGCUAGAAGAUAAAAAGCGGAUUUGCACCAUCCUUCCUUCUGACAAUAUGCUAGAAUAUCUGCAUUCAUGAUGGUUGUAGGCAACAGAGGAUUGAGCAUCA
B2: chr5:21408736:21408737:-_ENSMUSG00000042453_ENSMUST00000161356|mus_hu|mus_mus_mus_hu_False|48_98 (ssRNA)
RNA: GGGAGUUCUACAGUCCGACGAUCGUUGACAGAGUUGUAAAUGGUGGCUUCAUGGAACUGGAAAGGGGAGCAGCCAAUGCUGUUAGAAGAGGAAGGUAGGCACUGGGUCUGUACGAGCUGCCAGGAAUCCGAUCUUGCAUCCUUCAACAGAGGAUUGAGCAUCA
B3: chr17:60770872:60770873:+_ENSG00000011028_ENST00000303375|hu_hu|hu_hu_hu_mus_True|8_88 (ssRNA)
RNA: GGGAGUUCUACAGUCCGACGAUCUCUUUAAAAAAAAAAAAAAAAAGUUUAAAAACAAUAGCACAUUUCGAGAAUCAAGAACUACAAUAGAGGGUCCGCUUUGAGUUUUUGUUCACAUCGUCCUGCAACGCUGUCGCGGGACUGCAACAGAGGAUUGAGCAUCA
B4: chr11:134117569:134117570:+_ENSG00000151502_ENST00000281187|hu_mus|motif|central (ssRNA)
RNA: GGGAGUUCUACAGUCCGACGAUCAGAAACAUGUAAACACUGCAGCUUCUUAAUUACAAGUUGCACUGCUUGGUUUAGUACCGGUGCACUCCAGGUUUGGGAACCUUAAAGGAUGGGGAUGGGAACCUUCCCAUACUUUCACAGCAACAGAGGAUUGAGCAUCA
B5: 44713415_44713535_765_CDS_ENSG00000105953_ENST00000222673|human|control|control (ssRNA)
RNA: GGGAGUUCUACAGUCCGACGAUCGGACCGCACAAGCCUGGCCAGCAGGGUCCGUUUCUCCUCAUUUGUGAACUGCAUGAUCCCAGGGGUCUCAAACUUCUGCCGGAUCCACUGGCACUGCUCCAGGUCAUUGAUGAACAUGAACAACAGAGGAUUGAGCAUCA
B6: 50195189_50195309_2254_ncRNA_ENSMUSG00000007850_ENSMUST00000123371|mouse|control|control (ssRNA)
RNA: GGGAGUUCUACAGUCCGACGAUCUAAAGACAGCCCAAUAAACUAGGGAUAAUUUUAAAGCCUAAAGUUUAAUUUGAAUGAAAUACAUUAACUGGGAAAAUUUAGAAGUUAUAGCAGAUUAUCAAUUAACUGGGAAUAGGAAAUCAACAGAGGAUUGAGCAUCA
B7: chr2:127629987:127629988:-_ENSMUSG00000027379_ENSMUST00000028858|mus_hu|FALSE|FALSE (ssRNA)
RNA: GGGAGUUCUACAGUCCGACGAUCACCAGAUGUUUCACACUUUGCUGUGAAUAUAGUUCCUUUUGGAAAAAGUUUCAUAUCUAUACUCUGACCCAGGUCAAUCAGUGCCAAGCCAGCAGAUAAAUCAUCUUCAUCAUCCUGUUCCAACAGAGGAUUGAGCAUCA
B8: chr1:6218034:6218035:+_ENSMUSG00000025907_ENSMUST00000027040|mus_mus|FALSE|FALSE (ssRNA)
RNA: GGGAGUUCUACAGUCCGACGAUCGAUUACAAGUGUCUUAUAUGCGCUUGCUUGAUAUUGGCAACUGAGUGGCAUUACUGGUGAAACUCAGAGAACCGGCAGCGCCUCCUCCGCCCGCGGCAGCAACACAGCCGGCGGCCCUCCCAACAGAGGAUUGAGCAUCA
B9: chr11:109260588:109260589:+_ENSMUSG00000020611_ENSMUST00000020930|mus_hu|FALSE|FALSE (ssRNA)
RNA: GGGAGUUCUACAGUCCGACGAUCCUAACCAGAGGACCUUCUCUAUGCAAAUUACAUGCCAAUACACCUUAAAAGAAAAUAAGACAAAAGUGAAUGAGUUUUUUCAUUCCAUAUUGCUUUCUUUGGUUGCAGAGCAAUCCAGUGCAACAGAGGAUUGAGCAUCA
B10: 3982040_3982353_830_CDS_ENSG00000167658_ENST00000309311|human|control|control (ssRNA)
RNA: GGGAGUUCUACAGUCCGACGAUCGUCAAAGUACCUGUCACCCCACAGCUUCUUCAUCAUGUCCUCUACUUUCUUGGCCCGCUCGGCAGGCCCCAACUGGCCCUCCCCCUUGGCGGCGAACUUGGCCACAUACAUCUCGGCAAACAACAGAGGAUUGAGCAUCA
B11: chr17:76047126:76047127:+_ENSG00000078687_ENST00000588847|hu_mus|FALSE|FALSE (ssRNA)
RNA: GGGAGUUCUACAGUCCGACGAUCUGUCUGCUUAACAGAAGCAGCUCCUCCCCAGUUACUCACAUUGUUGUCUUGGGGCUUAUGAGCCCAGUUCUGCUGGGGACCAGGCUUGAGAGACUCCCCCCAGUUUGUACCUGGAUUCACCAACAGAGGAUUGAGCAUCA
B12: chr3:160143891:160143892:+_ENSG00000113810_ENST00000344722|hu_hu|motif|central (ssRNA)
RNA: GGGAGUUCUACAGUCCGACGAUCAGCAAGUACAUUAGCUUCAAGUUCCUUAACUUGGACAUUCAAAUAUUCUUCUUGCUCGGUUAAACGCUGGAUGCUUGCAGUAAAUUUUUCUAGUGUGUUCCUCAUUUCUCGUUCACUAUGCAACAGAGGAUUGAGCAUCA
B13: chr14:68739401:68739402:-_ENSMUSG00000022054_ENSMUST00000022638|mus_hu|motif|central (ssRNA)
RNA: GGGAGUUCUACAGUCCGACGAUCUAUUGUGAUUGGGGGUCGGUGUGUAUACAGUGGCCCAGUGAUGCUUCCUGCAAAUGUGCGGAAUCUAGUCUCUUCACCCUCCAGGAGUUUUCUGUACGCAGCGAUUUCUAUAUCCAGAGCCAACAGAGGAUUGAGCAUCA
B14: 135161848_135163709_6480_CDS_ENSG00000107290_ENST00000224140|human|control|control (ssRNA)
RNA: GGGAGUUCUACAGUCCGACGAUCAACUUUGGAAAUGUUUUCAUCUAAUUCUUGCCUCUGUAUUUCCCGUCCACCUCGGCAUAGAGCUCGCUGCCGGGAAAGCUCAUCCAGCUGAUAAUCUAGAAAUUCCUUUCUUUUAUGCAUCAACAGAGGAUUGAGCAUCA
B15: chr4:25749455:25749456:-_ENSG00000091490_ENST00000264868|hu_hu|hu_hu_hu_mus_False|28_58 (ssRNA)
RNA: GGGAGUUCUACAGUCCGACGAUCGCACUAUGACCUCUAGAAAAAUCCACAGGGGGAAAAAAUGUAAACCAAUGUACAAAGCUAUUGCCUUCCCUGUGUGUGGAGUGACAAACAAUUGGCUCCUUCUAGCUGCUGGAUUUGGGACAACAGAGGAUUGAGCAUCA
B16: chr5:145543945:145543946:-_ENSG00000133706_ENST00000545646|hu_hu|hu_hu_hu_mus_True|48_58 (ssRNA)
RNA: GGGAGUUCUACAGUCCGACGAUCCUGAACGGCCAGUGGUGGGAAAUAAUCAAGCCAGUGCUCUGCUUCAGAAAACUUUACUAUCUCUUCAUCAGACAGCCCAAGGGAUUUCAUAAUGUCCCACUGGUACUUAGAAGAUCCUGCCAACAGAGGAUUGAGCAUCA
B17: chr6:57672499:57672500:+_ENSMUSG00000062190_ENSMUST00000050077|mus_mus|motif|central (ssRNA)
RNA: GGGAGUUCUACAGUCCGACGAUCUCGAAGCAGGUAGGUCUGGUCACCAGUGACCCGGUACAGCUGCAGGUACAAAAGUGCGGUGCCUGUCCAACCAGUAUAUGCAGAGCAGUCAUGAGGGUCCGCUGUCUUCAGUCCUUCCUCCAACAGAGGAUUGAGCAUCA
B18: 109692034_109692919_6190_CDS_ENSG00000148143_ENST00000277225|human|control|control (ssRNA)
RNA: GGGAGUUCUACAGUCCGACGAUCGAGGUGAUUGCAGAUGGCUCGGAGCGUUGGGUGCACUUCCACACAGAAUUUACAUUUGUAGCCCACCACUUUCCUCUCCUUGAUCUUUGGCACCUCUUCUAAGUGACCAAAAGGCCUCUCCAACAGAGGAUUGAGCAUCA
B19: 101158937_101159057_933_3pUTR_ENSMUSG00000056537_ENSMUST00000070705|mouse|control|control (ssRNA)
RNA: GGGAGUUCUACAGUCCGACGAUCUGCAGAGGGGACCUGCUUCUUUCAGCUCUUGCUCUGGUUCUCCGAUGCUCUGGGCUCCGGCUUCUUGCCCUCCUCUGAGCUCUGGUGGUCGGCACUUCUGUUACUGCUUCAGCUGAAUUGCAACAGAGGAUUGAGCAUCA
B20: 127815162_127815468_294_3pUTR_ENSMUSG00000014498_ENSMUST00000014642|mouse|control|control (ssRNA)
RNA: GGGAGUUCUACAGUCCGACGAUCAGGCAGCGGCACGAUGAAGAGGGGUCAGCCACAGUGUGUCCUUAGCGUUGACGUUAGCACCUGACAUCAGUAGCAACUGGAGGAUGGGGACAUCGCCUACGUAGGCAGCAGCAUGCAAUGCAACAGAGGAUUGAGCAUCA
B21: chr10:79329780:79329781:-_ENSMUSG00000035835_ENSMUST00000166057|mus_mus|FALSE|FALSE (ssRNA)
RNA: GGGAGUUCUACAGUCCGACGAUCGGAUGACAUCUGUCACCAGAGCCGUGGCACACAGGCCAAACACGUGUACACCUGAGGACGAGAGGGCCAGGCCAGGGGAAGGGAGCAGGGGGGAGGGGUGUUCCCCCAAGCCUGUCUACACAACAGAGGAUUGAGCAUCA
B22: 42840347_42840467_1788_3pUTR_ENSG00000105429_ENST00000334370|human|control|control (ssRNA)
RNA: GGGAGUUCUACAGUCCGACGAUCCCAGCAGGGCACGGGAGGGGGCAUGGAACACCAUGGAGUGGCCAGUGGCAGCAGGGGGCCGUCCGCCUGCCGGAAUCACCUGCUCCCAAUAGCCCCCGCUGGUGCUGUCAAGGCGGAAACCAACAGAGGAUUGAGCAUCA

target: T1, UNK ZnF1-3 (human, UniProt Q9C0B0 31-174); test: nsRBNS (natural sequence RNA bind-n-seq); RBNS binding buffer (assumed for nsRBNS): 25 mM Tris pH 7.5, 150 mM KCl, 3 mM MgCl2, 0.01% Triton X-100, 500 ug/ml BSA, 20 U/ml SUPERase-In, 4 C; UNK is unkempt and MSI1 is Musashi-1; names of the RNAs are library labels; protein concentration not given here; high values mean tight binding
T1 sequence: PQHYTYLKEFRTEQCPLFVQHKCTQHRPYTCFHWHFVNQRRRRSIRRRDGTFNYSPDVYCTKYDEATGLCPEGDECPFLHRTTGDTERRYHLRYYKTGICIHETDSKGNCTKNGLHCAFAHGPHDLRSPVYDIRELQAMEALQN

For B1, which binding signal is on record?
Its binding signal is 1.58 enrichment R.

Which binding signal does the source give for B2 here?
Its binding signal is 1.68 enrichment R.

For B3, which binding signal is on record?
Its binding signal is 2.72 enrichment R.

B4 was tested. Which binding signal did it give?
The binding signal was 0.656 enrichment R.

How did the binding signal turn out when B5 was run?
The binding signal was 0.813 enrichment R.

With B6 as the binder, how does the binding signal read?
The binding signal was 2.5 enrichment R.

Which binding signal does the source give for B7 here?
The binding signal was 0.839 enrichment R.

Which binding signal does the source give for B8 here?
Its binding signal is 1.02 enrichment R.

How did the binding signal turn out when B9 was run?
Its binding signal is 0.576 enrichment R.

With B10 as the binder, how does the binding signal read?
The binding signal was 1.08 enrichment R.

With B11 as the binder, how does the binding signal read?
Its binding signal is 0.724 enrichment R.

For B12, which binding signal is on record?
Its binding signal is 0.84 enrichment R.

With B13 as the binder, how does the binding signal read?
The binding signal was 0.873 enrichment R.

With B14 as the binder, how does the binding signal read?
The binding signal was 0.452 enrichment R.

How did the binding signal turn out when B15 was run?
The binding signal was 1.27 enrichment R.

How did the binding signal turn out when B16 was run?
Its binding signal is 1.24 enrichment R.

For B17, which binding signal is on record?
Its binding signal is 1 enrichment R.

Which binding signal does the source give for B18 here?
Its binding signal is 0.805 enrichment R.

For B19, which binding signal is on record?
The binding signal was 0.441 enrichment R.

How did the binding signal turn out when B20 was run?
The binding signal was 1.82 enrichment R.

With B21 as the binder, how does the binding signal read?
Its binding signal is 2.15 enrichment R.

For B22, which binding signal is on record?
Its binding signal is 0.679 enrichment R.

Source: publication PMC12136788
